About 540 (0.36%) of roughly 150,000 compounds showed an effect of 50% or more. Some of the results follow.
system: Plasmodium falciparum; experiment: Primary screen in NF54 nanoGlo assay, in single point, at 2uM, 72h; a lower Z score goes with more inhibition; assay type: functional, Erythrocyte; details: timepoint 72 hour

| SMILES | % Inhibition | Z score |
| --- | --- | --- |
| CCC(=O)Nc1ccc(-c2c(F)cccc2OC)c(C)n1 | -6% | 1.04 |
| O=C([C@@H]1CCCCN1C(=O)c1ccc(F)c(F)c1)N1CCOCC1 | -7% | 0.89 |
| CC(C)Cn1ccnc1CNc1cccc(F)c1C#N | -6% | 0.57 |
| Cc1cc(C(=O)Nc2n[nH]c3ccnc(O)c23)n(C2CCOCC2)n1 | -2% | 0.2 |
| CCn1nc(C(=O)N2[C@H](C)CCC[C@@H]2C)ccc1=O | 5% | -0.72 |
| O=C(Nc1ccc(F)cc1Cl)[C@@H]1Oc2ccccc2NC1=O | -11% | 1.25 |
| COc1ccccc1C(=O)N1CCN(c2cc(-n3ccc(C)n3)ncn2)CC1 | -6% | 0.91 |
| Cc1nnc(N2CCN(C(=O)c3cccc(N(C)C)c3)CC2)s1 | -2% | 0.44 |
| C[C@H](NC(=O)C1(C#N)CCCC1)c1ccco1 | -5% | 0.9 |
| CC1CCC(C(C)C)C(OCC(=O)NC(C)c2nnc3n2CCC3)C1 (configuration not stated) | -4% | 0.54 |
| Cc1nn(C)cc1Cn1ccc2ncccc2c1=O | -23% | 3.04 |
| COc1ncc(C(=O)N[C@H]2COCC[C@@H]2OC)cn1 | 7% | -0.86 |
| Cc1ccc(C)c(NC(=O)N(CCCN2CCN(C)CC2)C2CCOCC2)c1 | -15% | 1.28 |
| CCCN(CC(=O)N(Cc1ccccc1)C1CCN(C(C)=O)CC1)S(=O)(=O)c1ccccc1 | -4% | 0.53 |
| CC1COCC(C)N1c1ncc(-c2nnnn2-c2ccccc2)c(-c2cccc(C(F)(F)F)c2)n1 (configuration not stated) | -35% | 4.14 |
| CN(C)C[C@@H](c1ccccc1)N(C)C(=O)Nc1ccc2c(cnn2C)c1 | -8% | 0.78 |
| CCc1nc(Cn2cnc3c2c(=O)n(C)c(=O)n3C)cs1 | 3% | -0.52 |
| O=C(NCCc1nccs1)N1CC(F)C1 | 3% | -0.25 |
| Cc1ccc(S(=O)(=O)N(c2ccccc2)C2CCN(Cc3ccc(N(C)C)cc3)CC2)cc1 | -11% | 1.25 |

| SMILES | % Inhibition | Z score |
| --- | --- | --- |
| CC(C)(O)c1cc(-c2ccc(Oc3ccccc3)cc2)no1 | 1% | -0.12 |
| CCC1CCCCC1OCC(=O)NCc1cncc(C)c1 (configuration not stated) | -1% | 0.13 |
| C#CCOc1ccc([C@H]2CC(O)=Nc3nc(NC)sc32)cc1OC | 0% | 0.03 |
| CN1CCN(CC[C@H]2CCCCN2C(=O)Nc2cccc3[nH]ncc23)CC1 | -10% | 1.29 |
| Cc1noc(C)c1S(=O)(=O)N1CCC[C@H]1C(=O)Nc1ccc(Br)cc1 | 1% | -0.12 |
| Cc1onc(N)c1S(=O)(=O)N[C@H]1CCc2cc(Cl)ccc21 | -7% | 0.66 |
| Cc1ccc(Nc2nc(N(C)C)nc3nccnc23)c(C)c1 | -10% | 1.12 |
| CC#CCn1nnc(-c2cccs2)n1 | 10% | -1.16 |
| CCOc1cccc(Cc2noc([C@]3(OC)CCOC3)n2)n1 | 0% | 0.02 |
| Cc1ccccc1Cn1c(NC2CCCCC2)nc2c1c(=O)[nH]c(=O)n2C | -8% | 1.29 |
| CCCN1CCN(C(=O)[C@@H]2Cc3[nH]cnc3C3(CCCC3)N2)CC1 | -9% | 1.46 |
| CCOC(=O)[C@@H]1CCCN(C(=O)Cn2nnc3ccccc32)C1 | -6% | 1.02 |
| CC(C)c1nn(C)cc1-c1noc([C@@]23CCCC[C@@H]2NCC3)n1 | -13% | 2.38 |
| CC1CCCC(NC(=O)Nc2cnsc2)C1 (configuration not stated) | -1% | 0.1 |
| C=CCC1(OCc2ccccc2)CCN(C(=O)NCc2cn(C)nc2C)CC1 | -2% | 0.46 |
| CN1CCN(CC[C@H]2CCCCN2Cc2ccnc3ccccc23)CC1 | -8% | 1.57 |
| Cc1ccc2nccc(C(=O)N3C[C@H]4CC[C@@H](C3)[C@H]4N(C)C)c2c1 | 11% | -1.45 |
| O=C(NCCOc1ccc2c(c1)OCO2)C1CCCCC1 | -8% | 0.73 |
| Cc1ccc(CN2CCNC(=O)[C@@H]2CC(=O)N(Cc2nccn2C)C(C)C)o1 | 7% | -1.28 |

| SMILES | % Inhibition | Z score |
| --- | --- | --- |
| CCn1c(N2CCC(C(=O)NC3CCCCCC3)CC2)cc(=O)n(C)c1=O | -3% | 0.55 |
| Cc1ccc(C(=O)NCCC(=O)N2CCOC3(CCC3)C2)c(O)c1 | 4% | -0.4 |
| CCC(OC1CCCC(C)C1)C(=O)Nc1c(C)nn(C)c1OC (configuration not stated) | -8% | 0.82 |
| COC(=O)C1C2CCC(C2)C1NC(=O)c1cccnc1 (configuration not stated) | -15% | 2.92 |
| Nc1ncc2c(n1)CN(C(=O)CC1CC3CCC1C3)CC2 (configuration not stated) | -13% | 1.98 |
| CN(Cc1cnc(N(C)C)s1)CC1CCC1 | -9% | 1.15 |
| O=C(NCCc1ccc(F)c(Br)c1)NCC(=O)N1CCCC1 | 0% | 0.01 |
| C=C(C)CNC(N)=NCc1cc(Cl)c2c(c1)OCCCO2 | 13% | -1.28 |
| COCCNC(=O)Nc1ccc2c(c1)C(=O)NCC2 | -15% | 2.13 |
| Cc1nc(C)c(CN(CCC(N)=O)c2ccc(F)cc2)s1 | 31% | -3.51 |
| Cc1cc(C)n(-c2ccc(CN3CCC[C@@H]3C(=O)O)cc2)n1 | -11% | 1.63 |
| O=C1Nc2ccc(NC(=O)C(F)(F)F)cc2C1=O | -8% | 1.25 |
| Cc1ccnc(N2CC[C@H](Oc3cncc(Br)c3)C2)n1 | 15% | -1.74 |
| c1ccc2c(-c3csc4nc5ccccc5n34)cccc2c1 | -1% | 0.08 |
| CC(=O)Nc1ccc(CNC2CCC3CCC2C3)cn1 (configuration not stated) | 1% | -0.26 |
| O=C(NCc1ccco1)[C@H]1CC(=O)N(CCN2CCN(S(=O)(=O)c3ccccc3)CC2)C1 | 5% | -0.73 |
| Clc1ccc(-c2nc(-c3ccc(-n4cccn4)nc3)no2)s1 | -15% | 1.6 |
| COC(=O)c1cncc(NCc2cnccc2C)c1 | -36% | 4.26 |

From ChEMBL document CHEMBL4888484, “Replenishing the malaria drug discovery pipeline: Screening and hit evaluation of the MMV Hit Generation Library 1 (HGL1) against asexual blood stage Plasmodium falciparum ,using a nano luciferase reporter read-out” (2022)
